Experimental data as given in PubChem BioAssay AID2060337 (Molecular Pharmacology Branch, DTP, NCI, 2025).
The source holds more than one record for some entries. This list holds those alone. There may be further records. Values given together are repeats (runs, samples, wells, individuals or studies).

Tested on: 832693-133-R-J1-PDC multi-cell spheroids, viability
Assay: Anticancer human tumor 832693-133-R-J1-PDC patient-derived head and neck squamous carcinoma cell line growth inhibition [IpAb]
Source text: Combinatorial screen of targeted agents with ipatasertib and abemaciclib in multi-cell type tumor spheroids
A high-throughput screen of multi-cell type tumor spheroids was designed to identify active combinations of targeted small molecules and ipatasertib or abemaciclib. Complex spheroids include a stromal component modeled by human endothelial cells (HUVEC) and fibroblasts modeled by human mesenchymal stem cells (MSCs). The concentration ranges selected for each drug and investigational agent were based upon clinically achievable concentrations if the clinical Cmax of the agent was known.
Compounds. […] If the clinical Cmax for an agent had not been determined, the highest concentration tested was 10 microM.
NCI60 Cell Culture. […] The optimal seeding densities for each of the cell lines at each time point assessed were determined prior to performing the concentration response studies. […]
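Also: spheroids exposed to the drugs for one week before the viability readout.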
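For viability, T/C in this document: 100% = DMSO vehicle control wells.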

CC1(C)CCC(CN2CCN(c3ccc(C(=O)NS(=O)(=O)c4ccc(NCC5CCOCC5)c([N+](=O)[O-])c4)c(Oc4cnc5[nH]ccc5c4)c3)CC2)=C(c2ccc(Cl)cc2)C1
viability, T/C (compound alone 10 µM, stronger effect = lower value): 43.1% and 4.29%

CCN1CCN(Cc2ccc(Nc3ncc(F)c(-c4cc(F)c5nc(C)n(C(C)C)c5c4)n3)nc2)CC1
IC50 (compound alone, run of 05/18/2021): 706 nM, 740 nM, 526 nM, > 1 µM
